Data on 65 sequences can be found in publication PMC5892938.

This is one part of the list. Construct or isoform of the protein are uncertain.

In the assay the target is GST-SBP-ILF3 (Homo sapiens) (UniProt Q12906). The assay can be described thus: targeted RNA Bind-n-Seq. The following applies: RBNS binding buffer: 25 mM Tris pH 7.5, 150 mM KCl, 3 mM MgCl2, 0.1% Tween, 0.5 mg/mL BSA, 1 mM DTT; 27 nM protein, 750 pM RNA pool; temperature not stated; high values mean tight binding; sequences stand for … in GGGUAAAAGCGAGGUGAA…CGGGACAAGUAUUAUGGG
With “GUGUGGUGUGUUGGUCUCUAACACAUCACG [gtspaired]”, the binding signal (log2 fold change) is -0.641.

With “UUUUUUUUUUGAGAGGGACUCCCUUUCCAG [tttttgagapaired]”, the binding signal (log2 fold change) was found to be 0.237. The same measure for “UUUUUUUUUUGAGAGGGGUACCCUCUCCUG [tttttgagapaired]”: 0.675. The same measure for “UUUUUUUUUUGAGACGAGGAUAAUAAAAAA [ttttgagaunpaired]”: -0.345; for “UUUUUUUUUUGAGAUGGACGCCAUCUCCUA [tttttgagapaired]”: 0.384. With “UUUUUUUUUUGAGACCGGUUCGGUCUCCAG [tttttgagapaired]”, the binding signal (log2 fold change) came out at 0.199. For the sequence “GGUUGGUGUGUUGGCCUCUAACACAUCAAC [gtspaired]”, the binding signal (log2 fold change) was -0.272. The same measure for “UUUUUUUUUUGAGACUGAUUCAGUCUCCUG [tttttgagapaired]”: -0.104; for “UUUUUUUUUUGAGACCGAAACGGUCUUCUA [tttttgagapaired]”: 0.25; for “UUUUUUUUUUGAGAACGAUGCGUUCUCCAG [tttttgagapaired]”: -0.0182. In the case of “UUUUUUUUUUGAGACGGGAACUGUCUUCUA [tttttgagapaired]”, the binding signal (log2 fold change) came to 0.566. The same measure for “GUGUGGUGUGUUGGCACCUAACACACUAUA [gtspaired]”: -0.542; for “GGUGGUUGUGUUGGUGUCUAACACAGCUAC [gtspaired]”: -0.67. The same measure for “UUUUUUUUUUGAGACGGUGGCCGUCUCCUG [tttttgagapaired]”: 1.04; for “UUUUUUUUUUGAGAGGGAAUCCCUCUCCUG [tttttgagapaired]”: 0.258; for “UUUUUUUUUUGAGAGGGCUACCCUCUCCUA [tttttgagapaired]”: 0.508. The same measure for “UUUUUUUUUUGAGAUCGUAGCGAUCUUCUG [tttttgagapaired]”: 0.27. On to “UUUUUUUUUUGAGAGGGUGUCCCUCUCCUA [tttttgagapaired]”, for which the binding signal (log2 fold change) is 0.828. Turning to “GUGUGUUGUGUUGGCAUCUAACACAACGCA [gtspaired]”, the binding signal (log2 fold change) was -0.418. The same measure for “UUUUUUUUUUGAGAUGGGCGCCAUCUCCUG [tttttgagapaired]”: 0.55. The same measure for “UUUUUUUUUUGAGAGGGAACCCCUCUCCGG [tttttgagapaired]”: 0.177; for “UUUUUUUUUUGAGAAGGCGUCCUUCUCCAG [tttttgagapaired]”: 0.382; for “GGUGUUGGUGUUGGUCUCUAACACCGAUAC [gtspaired]”: -0.858.

Regarding “UUUUUUUUUUGAGAGCGUGACGUUCUCCGG [tttttgagapaired]”, the binding signal (log2 fold change) came out at 0.295.

“UUUUUUUUUUGAGAGGGAAUCCCUUUCCAG [tttttgagapaired]”: the binding signal (log2 fold change) is -0.0117.

For the sequence “UUUUUUUUUUGAGAUGGAGUCCGUCUCCGG [tttttgagapaired]”, the binding signal (log2 fold change) was 0.594.

In the case of “UUUUUUUUUUGAGACUGUUCCAGUCUCCUG [tttttgagapaired]”, the binding signal (log2 fold change) was 0.393.

“UUUUUUUUUUGAGAUGGUAUCCAUCUCCAG [tttttgagapaired]”: the binding signal (log2 fold change) was determined as 0.0113. The same measure for “GUGGUUGGUGUUGGCCUCUAACACCAGCCA [gtspaired]”: 0.0214; for “GUGGUGUGUGUUGGUGUCUAACACAUACCG [gtspaired]”: -0.692.

With “UUUUUUUUUUGAGAUGGUGACCAUUUCCAG [tttttgagapaired]”, the binding signal (log2 fold change) amounted to 0.492. The same measure for “UUCUCUCUUCCUCCGGCGGAGGAGGGGAGA [ctspaired]”: -0.243; for “UUUUUUUUUUGAGAGCGAUACGCUCUCCAG [tttttgagapaired]”: 0.344. As to “UUUUUUUUUUGAGACCGAGACGGUUUCCUA [tttttgagapaired]”, the binding signal (log2 fold change) stood at 0.648. The same measure for “GGUGUGUGUGUUGGCCCCUAACACACAUAC [gtspaired]”: 0.0603; for “UUUUUUUUUUGAGAGCGGCACGUUCUCCUG [tttttgagapaired]”: 0.527.

For “UUUUUUUUUUGAGAUGGAAGCUAUCUCCAG [tttttgagapaired]”, the binding signal (log2 fold change) was found to be 0.29. As for “UUUUUUUUUUGAGACGGAGACCGUCUCCUG [tttttgagapaired]”, the binding signal (log2 fold change) stood at 0.69.

As to “UUUUUUUUUUGAGAGCGUACCGUUCUCCAG [tttttgagapaired]”, the binding signal (log2 fold change) was 0.61.

With “GGUGUUGGUGUUGGUCUCUAACACCGACGC [gtspaired]”, the binding signal (log2 fold change) was -0.629. The same measure for “GUGGUUGGUGUUGGCUUCUAACACCGACUA [gtspaired]”: -0.811; for “GUGUGUGGUGUUGGAGCCUAACACCGCGCA [gtspaired]”: -0.524.

On to “UUUUUUUUUUGAGAUCGGGUCGAUCUCCAG [tttttgagapaired]”, for which the binding signal (log2 fold change) was 0.201. For “UUUUUUUUUUGAGAGUGAAUCACUCUCCUA [tttttgagapaired]”, the binding signal (log2 fold change) is 0.0482. The same measure for “GUGUGUUGUGUUGGCGCCUAACACAGCACG [gtspaired]”: -0.295; for “UUUUUUUUUUGAGACUGUGACAGUCUCCUG [tttttgagapaired]”: 0.663; for “GUUGGUGGUGUUGGUAUCUAACACCGCCGA [gtspaired]”: -0.733. “UUCUCUUCUCCUCCAAAGGAGGGGGAGGGA [ctspaired]”: the binding signal (log2 fold change) was -0.38. The same measure for “GUGUGUUGUGUUGGACUCUAACACAGCGCG [gtspaired]”: -0.567.

With “GUUGGUGGUGUUGGAGUCUAACACCAUCAA [gtspaired]”, the binding signal (log2 fold change) is -0.525. The same measure for “UUUUUUUUUUGAGAGCGGUACGCUCUCCAG [tttttgagapaired]”: 0.0221; for “UUUUUUUUUUGAGACCGACACGGUUUUCUA [tttttgagapaired]”: 0.414; for “UUUUUUUUUUGAGAUGGGUGCCAUUUCCAG [tttttgagapaired]”: 0.632.

As to “UUUUUUUUUUGAGACGGAGGCCGUUUCCGG [tttttgagapaired]”, the binding signal (log2 fold change) came to 0.855. The same measure for “UUUUUUUUUUGAGACGGGCACCGUCUCCUG [tttttgagapaired]”: 0.511; for “UUUUUUUUUUGAGAUGGUGUCCAUCUCCAG [tttttgagapaired]”: 0.481. For the sequence “UUUUUUUUUUGAGAUCGAGCCGAUCUCCUG [tttttgagapaired]”, the binding signal (log2 fold change) was 0.403. The same measure for “UUUUUUUUUUGAGACCGGCACGGUCUCCUG [tttttgagapaired]”: 0.615; for “UUUUUUUUUUGAGAUGGGUACCAUCUCCUA [tttttgagapaired]”: 0.507.

In the case of “UUUUUUUUUUGAGAUCGGCGCGAUCUCCUG [tttttgagapaired]”, the binding signal (log2 fold change) is 0.728. “UUUUUUUUUUGAGACGGUAUCCGUCUCCUG [tttttgagapaired]”: the binding signal (log2 fold change) worked out at 0.541. The same measure for “UUUUUUUUUUGAGAGGGUACCCCUCUUCUA [tttttgagapaired]”: 0.214; for “UUUUUUUUUUGAGAUGGUGGCCAUCUCCAG [tttttgagapaired]”: 0.732; for “UUUUUUUUUUGAGAUGGGGGCCAUCUCCUA [tttttgagapaired]”: 0.792.

Turning to “UUUUUUUUUUGAGACCGGACCGGUCUCCGG [tttttgagapaired]”, the binding signal (log2 fold change) is 0.687.
